Positions count from the first letter of the chain named. No constants are given. Whether binding was seen depends on the method and setting. Binding seen in cells or lysates may run through a third protein. Some binding calls cover weakened binding; strength is not graded here. For some of these results: Where a sequence is shown, tags or fusion partners need not be part of it. Blank lines part the entries; values can stand above or below the molecule they belong to.
Assays:
[1] = biological target: T1, ProtA-Clp1 (yeast) (UniProt Q08685); experiment: co-IP; partial purification of CF IA from yeast by the ProtA tag on Clp1, final high salt wash (1 M KCl); Western blot for Rna15, Pcf11, Clp1 and Rna14 (Fig. 4A)
T1 sequence: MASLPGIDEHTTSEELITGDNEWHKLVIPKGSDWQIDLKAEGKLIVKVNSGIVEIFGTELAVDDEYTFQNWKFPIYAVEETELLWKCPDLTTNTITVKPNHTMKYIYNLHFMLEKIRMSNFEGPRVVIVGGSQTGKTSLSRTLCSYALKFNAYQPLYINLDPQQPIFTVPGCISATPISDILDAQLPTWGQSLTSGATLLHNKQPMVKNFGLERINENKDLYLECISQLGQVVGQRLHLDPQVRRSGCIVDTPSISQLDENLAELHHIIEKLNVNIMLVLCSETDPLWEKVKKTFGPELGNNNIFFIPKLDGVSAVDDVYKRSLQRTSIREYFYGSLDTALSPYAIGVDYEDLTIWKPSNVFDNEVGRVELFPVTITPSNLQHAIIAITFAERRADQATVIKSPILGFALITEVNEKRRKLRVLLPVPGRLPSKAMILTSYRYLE

Chains of the proteins cited; added tags and fusions are not shown. Lines headed by an entry give the natural chain unless they say otherwise; changes in a name come on top. Residues count along the entry.
UniProt P39081: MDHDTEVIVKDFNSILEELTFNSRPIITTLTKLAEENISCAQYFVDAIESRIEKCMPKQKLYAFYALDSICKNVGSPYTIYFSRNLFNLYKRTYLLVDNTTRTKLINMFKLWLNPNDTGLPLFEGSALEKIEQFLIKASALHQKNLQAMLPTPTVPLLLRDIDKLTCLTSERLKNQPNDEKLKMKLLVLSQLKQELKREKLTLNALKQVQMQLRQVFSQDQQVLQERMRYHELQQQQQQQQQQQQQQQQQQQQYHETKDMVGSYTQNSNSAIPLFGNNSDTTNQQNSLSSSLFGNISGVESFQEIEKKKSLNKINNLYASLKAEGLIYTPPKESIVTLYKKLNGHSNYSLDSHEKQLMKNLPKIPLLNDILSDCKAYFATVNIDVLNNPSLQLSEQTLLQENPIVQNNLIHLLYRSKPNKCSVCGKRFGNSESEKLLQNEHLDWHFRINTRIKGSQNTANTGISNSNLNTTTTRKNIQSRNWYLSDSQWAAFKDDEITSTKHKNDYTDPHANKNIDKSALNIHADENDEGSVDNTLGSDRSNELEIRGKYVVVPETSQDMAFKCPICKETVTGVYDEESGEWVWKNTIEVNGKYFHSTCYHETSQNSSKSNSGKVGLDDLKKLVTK
GST-Pcf11ΔN288: residues 289-626 of P39081

[2] = biological target: T2, ProtA-Clp1 K136A T137A (yeast) (UniProt Q08685); experiment: as above
T2 sequence: T1 sequence with K136A, T137A

[3] = biological target: GST-Pcf11ΔN288 (yeast) (UniProt P39081); experiment: pull-down; reconstitution of CF IA from heterologously expressed subunits: GST-Pcf11ΔN288 immobilised on glutathione sepharose, His6-Clp1 (wild-type or mutant) and preformed His6-Rna14/Rna15 dimers added; data not shown

binding [1]: binds
Molecule: Pcf11, endogenous in yeast (from UniProt P39081 1-626)

binding [2]: binds
binding [1]: binds
B1: Rna14, endogenous in yeast (protein, UniProt P25298 1-677)
chain: MSSSTTPDLLYPSADKVAEPSDNIHGDELRLRERIKDNPTNILSYFQLIQYLETQESYAKVREVYEQFHNTFPFYSPAWTLQLKGELARDEFETVEKILAQCLSGKLENNDLSLWSTYLDYIRRKNNLITGGQEARAVIVKAFQLVMQKCAIFEPKSSSFWNEYLNFLEQWKPFNKWEEQQRIDMLREFYKKMLCVPFDNLEKMWNRYTQWEQEINSLTARKFIGELSAEYMKARSLYQEWLNVTNGLKRASPINLRTANKKNIPQPGTSDSNIQQLQIWLNWIKWERENKLMLSEDMLSQRISYVYKQGIQYMIFSAEMWYDYSMYISENSDRQNILYTALLANPDSPSLTFKLSECYELDNDSESVSNCFDKCTQTLLSQYKKIASDVNSGEDNNTEYEQELLYKQREKLTFVFCVYMNTMKRISGLSAARTVFGKCRKLKRILTHDVYVENAYLEFQNQNDYKTAFKVLELGLKYFQNDGVYINKYLDFLIFLNKDSQIKTLFETSVEKVQDLTQLKEIYKKMISYESKFGNLNNVYSLEKRFFERFPQENLIEVFTSRYQIQNSNLIKKLELTYMYNEEEDSYFSSGNGDGHHGSYNMSSSDRKRLMEETGNNGNFSNKKFKRDSELPTEVLDLLSVIPKRQYFNTNLLDAQKLVNFLNDQVEIPTVESTKSG

binding [3]: binds
B2: His6-Clp1, recombinant, for CF IA reconstitution (protein, UniProt Q08685 1-445)
chain: T1 sequence

Reference: paper PMC3245249
